Results reported in publication PMC4336329 (PLoS ONE, 2015).
Among all 310,000 compounds or so, about 2,200 (0.71%) showed an effect of 50% or more. The effect is printed as a negative number. The list shows a part of the results.

Biological target: human ether-à-go-go-related gene (hERG) potassium channel (human, UniProt Q12809)
Assay: primary screen, population patch clamp on CHO cells stably expressing hERG

human ether-à-go-go-related gene (hERG) potassium channel, sequence (Q12809 whole entry, looked up): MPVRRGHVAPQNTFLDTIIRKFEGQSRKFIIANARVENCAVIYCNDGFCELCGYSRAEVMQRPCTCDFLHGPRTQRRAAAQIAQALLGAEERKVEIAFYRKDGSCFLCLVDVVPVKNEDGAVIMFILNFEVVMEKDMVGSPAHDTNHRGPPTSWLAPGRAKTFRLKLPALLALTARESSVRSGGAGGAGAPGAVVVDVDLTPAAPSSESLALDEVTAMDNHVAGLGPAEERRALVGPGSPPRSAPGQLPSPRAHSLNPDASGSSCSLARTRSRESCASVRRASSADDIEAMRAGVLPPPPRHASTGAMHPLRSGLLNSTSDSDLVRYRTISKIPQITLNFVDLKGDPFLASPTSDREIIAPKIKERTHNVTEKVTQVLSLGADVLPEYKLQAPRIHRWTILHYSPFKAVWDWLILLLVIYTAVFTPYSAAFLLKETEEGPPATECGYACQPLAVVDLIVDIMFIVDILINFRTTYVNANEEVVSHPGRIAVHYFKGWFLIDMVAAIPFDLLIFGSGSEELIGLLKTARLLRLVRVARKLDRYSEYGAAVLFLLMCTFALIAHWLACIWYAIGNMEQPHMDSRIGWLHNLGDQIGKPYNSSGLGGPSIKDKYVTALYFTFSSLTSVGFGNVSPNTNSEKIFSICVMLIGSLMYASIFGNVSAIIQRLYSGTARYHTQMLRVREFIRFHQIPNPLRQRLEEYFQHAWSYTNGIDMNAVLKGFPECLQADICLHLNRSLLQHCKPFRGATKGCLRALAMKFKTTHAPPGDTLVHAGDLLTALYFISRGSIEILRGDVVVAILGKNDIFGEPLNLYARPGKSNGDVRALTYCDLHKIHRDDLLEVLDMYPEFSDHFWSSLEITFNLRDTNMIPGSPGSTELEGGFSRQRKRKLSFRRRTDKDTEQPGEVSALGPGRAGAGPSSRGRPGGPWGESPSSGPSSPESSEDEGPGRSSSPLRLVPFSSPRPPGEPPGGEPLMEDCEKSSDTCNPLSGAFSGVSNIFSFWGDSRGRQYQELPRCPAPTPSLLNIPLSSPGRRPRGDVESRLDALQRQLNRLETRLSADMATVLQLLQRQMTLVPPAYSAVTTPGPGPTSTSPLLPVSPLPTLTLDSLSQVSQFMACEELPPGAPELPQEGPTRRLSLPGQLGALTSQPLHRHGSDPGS

SMILES | hERG current change (%, negative = inhibition) at 1uM [%]
Cc1ccccc1N1CCN(C2CCCN(C(=O)c3cc(CC(C)C)nn3C)C2)CC1 (centres unmarked) | 5.95
COC(=O)C1CCN(S(=O)(=O)Cc2ccccc2Cl)CC1 | 20
CN1CCC(OC(=O)c2cccc(Br)c2)CC1.Cl | -13.3
CC(=O)Nc1ccc(NC(=O)C(C)n2c3ccccc3c3nc(=O)cc(C)n32)cc1 (centres unmarked) | 0.598
COc1ccc(COC(=O)N/N=C(\C)CC(=O)NCc2ccc(Cl)cc2)cc1 | 10.8
COC(=O)c1ccccc1NC(=O)c1sc(Cl)nc1C | 5.06
O=C(NCc1ccc[n+](CCCCS(=O)(=O)[O-])c1)c1ccc(OC(F)F)cc1 | -3.6
O=C(COC(=O)C12CC3CC(CC(O)(C3)C1)C2)NC(=O)NCc1ccco1 | 4.54
Cc1nnc(NC(=O)c2ccccc2Oc2ccccc2)s1 | 9.33
COC(=O)CC(NC(=O)c1ccco1)c1cccc2ccccc12 (centres unmarked) | -5.37
COc1cc(/C(C)=N\NC(=O)CSc2nc3ccccc3n2C)ccc1O | 12.2
Oc1ccc(Br)cc1CNc1cccc2cccnc12 | 13.6
CC(=O)Nc1ccc(S(=O)(=O)NCc2cn3c(C)csc3n2)cc1 | 5.79
CC(C)CCSc1nc(N)c(C#N)cc1C#N | 1.91
Cc1cccc(Cn2ccc(-c3ccc(Cl)cc3)c(C#N)c2=O)c1 | 7.94
Cc1ccc([C@@H]2[C@@H]3C(=O)N(C)C(=O)[C@@H]3[C@]3(C)C(=O)N(Cc4ccccn4)CC(=O)N23)o1 | 13.9
O=C(COc1ccccc1Cl)NC(=S)Nc1ccccc1N1CCCC1 | 15.4
CCCNC(=O)CSc1nc2[nH]ncc2c(=O)[nH]1 | -5.12
Cc1nc2ncnn2c(C)c1Cc1c(Cl)cccc1Cl | 10.5
Cc1cccc(NS(=O)(=O)c2ccc3[nH]c(=O)cc(C(=O)OC(C)C(=O)Nc4ccc([N+](=O)[O-])cc4)c3c2)c1 (centres unmarked) | 7.95
O=C(N/C(=C\c1ccccc1)C(=O)N1CCCCCC1)c1ccccc1 | 21.1
Cc1sc2ncnc(NCC(c3ccco3)N3CCCC3)c2c1C (centres unmarked) | -28.4
O=C(C1CCC1)N1CCN(c2cccc(C(F)(F)F)c2)CC1 | 4.25

SMILES | hERG current change (%, negative = inhibition) at 1uM [%]
O=C1CC2(CCN(C(=O)c3cccc(Br)c3)CC2)Oc2ccccc21 | -56
COc1ccc([C@H]2CC(=O)C=C(c3cccc(Cl)c3)C2)cc1OC | -7.44
Cc1ccc(N2C(=O)N(CC(=O)Nc3c(C)cc(C)cc3Cl)C(=O)C2C)cc1 (centres unmarked) | -8.12
Nn1c(Cc2ccccc2F)nnc1SCCOc1ccc(Cl)cc1 | -2.75
COc1ccc(-c2noc(CN(C(=O)c3ccc4c(c3)OCO4)C(C)C)n2)cc1OC | 4.02
O=[N+]([O-])c1cc(-c2csc(NCCc3nc4cc(Cl)c(Cl)cc4n3CCCO)n2)ccc1Cl | 9.13
C/C(=N\NC(=O)CSc1nc2ccccc2[nH]1)c1ccncc1 | 9.29
O=C(CCC(=O)N(CC(=O)NC1CCCC1)C1CCCC1)Nc1ccccn1 | -3.99
COc1ccc(CCNC(=O)C(NC(=O)OCc2ccccc2)C(C)C)cc1OC (centres unmarked) | 5.51
CCN(CC)c1ccc(C=Nc2ccc(C)cc2C)c(O)c1 | 12.6
Cc1ccc(S(=O)(=O)NCC(=O)N2CCOCC2)cc1 | 12.1
COc1cc(C(=O)Nc2nnc(CC(C)(C)C)s2)c([N+](=O)[O-])cc1OC | 9.57
CCCN(c1ccccc1F)S(=O)(=O)c1cc(-c2cc(C)no2)ccc1OC | 15.2
CC(C)(C)CN1CCN(CCCc2ccccc2)C(CCO)C1 (centres unmarked) | -5.87
O=C(/C=C/c1ccco1)NCC1OCCc2ccccc21 (centres unmarked) | 15.9
O=C1CN(S(=O)(=O)c2ccccc2)CC(=O)N1CCc1ccccc1 | 9.7
Cn1cc(Br)c(C(=O)NNC(=O)Cc2ccc(Cl)cc2)n1 | 11
O=CN(Cc1ccco1)C1(C(=O)NC2CCCCC2)CCCCC1 | 5.42
O=[N+]([O-])/C=C1\NCCN1Cc1ccc(Cl)nc1 [24810910] | 11
N=c1c2c3c(sc2ncn1N)CCCC3 | 2.4
O=C(NCc1ccccc1)c1cccc(S(=O)(=O)NCc2ccccc2)c1 | 6.18
Cc1ccccc1OCc1nnc(SCC(=O)NC2CCCCC2)o1 | 1.81
N#CC1=C(N)OC2=C(C(=O)CCC2)C1c1ccoc1 (centres unmarked) | 9.36

SMILES | hERG current change (%, negative = inhibition) at 1uM [%]
CCOc1ccc(-c2nc(CSc3nncs3)cs2)cc1OC | -0.186
CC1(C)C/C(=C(/C#N)C(N)=O)CCO1 | 15.2
CCCNC(=O)Cn1c(=O)n(C)c2ccccc21 | 10.9
CC(CNS(=O)(=O)c1ccccc1)Sc1nncn1C (centres unmarked) | 20.8
COc1ccc(C(=O)N2CCN(c3ccc(C)cc3C)CC2)cc1OC | -13.8
CC1CN(CC(=O)Nc2cc(S(=O)(=O)N3CCCC3)ccc2Cl)CC(C)O1 (centres unmarked) | 10.8
CC(C)OC(=O)/C(C#N)=C\c1cccnc1 | 14.3
Cc1ccc(C(=O)Nc2ccc(NC(=O)c3ccc(C)o3)cc2)o1 | 7.55
O=C(NCCCN1CCOCC1)c1ccc(Sc2cccc(Cl)c2)c([N+](=O)[O-])c1 | 8.39
Clc1ccc(C2Nc3ccccc3-n3cccc32)cc1 (centres unmarked) | 11.1
Cn1c(O)c(N=NC(=O)c2ccccc2O)c2ccccc21 | 6.95
CSCCNC(=O)c1ccc2nc(Cc3ccccc3F)oc2c1 | 15.1
CCOc1ccc(NC(=O)CN(C)C(=O)/C=C/c2ccco2)cc1OCC | -14.3
C=C(C)COc1ccc(-c2[nH]ncc2Oc2ccccc2OC)c(O)c1 | -27.4
CCOc1ccc(-n2c(O)c(/C=N/Nc3nc(C)cc(C)n3)c3ccccc3c2=O)cc1 | 1.4
COc1ccccc1NC(=O)CN(Cc1ccco1)C(=O)c1ccc(=O)[nH]c1 | 9.78
O=C(CN1CCOCC1)Nc1nc(-c2ccc(Cl)cc2)cs1 | -1.22
COc1ccc(/C=C/C(=O)c2cc3c(cc2N)OCO3)cc1 | 10.4
CCOC(=O)C1=C(N)n2c(s/c(=C\c3ccco3)c2=O)=C(C(=O)OCC)C1c1ccco1 (centres unmarked) | -4.35
CNS(=O)(=O)c1cn(CC(=O)NCc2cccc(OC)c2)cc1S(=O)(=O)NC | 2.52
O=C(N/N=C/c1ccccn1)c1ccco1 | 13
CC(C(=O)N1CCOCC1)N1C(=O)c2ccccc2C1=O (centres unmarked) | 12.3
COc1ccc(CC2C(=O)NC(=O)NC2=O)c(OC)c1 | 9.38

SMILES | hERG current change (%, negative = inhibition) at 1uM [%]
COCCn1c(=NC(=O)c2cc(Cl)sc2Cl)sc2cc(S(N)(=O)=O)ccc21 | 12.4
Cc1cccc(Oc2coc3cc(OC(=O)c4cc5ccccc5oc4=O)ccc3c2=O)c1 | -6.09
Cc1cc(OCC(=O)NCCCn2ccnc2)c2c(C)cc(=O)oc2c1 | 14.7
CCc1ccc(/C=C2/SC(=S)N(CCC(=O)Nc3cccc(C(=O)O)c3)C2=O)cc1 | 0.872
Cc1ccc2[nH]c(=O)c(C3=NN(C(=O)CCC(=O)O)C(c4cccs4)C3)c(-c3ccccc3)c2c1 (centres unmarked) | 24.3
COc1ccc(S(=O)(=O)NCc2ccc(C(=O)O)cc2)cc1 | 4.92
Cc1cc2oc(=O)c3c(c2cc1OCc1nn[nH]n1)CCCC3 | 2.45
CC(C)(C)c1cc(C(C)(C)C)n(-c2ccccc2)n1 | 6.91
CN1CCc2c(sc3nc(SCC(=O)N4CCCCC4)n(-c4ccccc4)c(=O)c23)C1 | 13.9
CC(C)(C#CCN1CCCC1)OCCC#N | 15.1
COC(=O)c1ccc(COc2ccccc2/C=C(\C#N)C(=O)Nc2ccccc2C)cc1 | 3.15
O=S(Cc1ccc(Cl)cc1)CC(O)(c1ccccc1)c1ccccc1 (centres unmarked) | 6.65
Nc1nc(Nc2cccc(F)c2)nc(NCc2ccco2)c1[N+](=O)[O-] | 10.6
CC(=O)c1cccc(OCc2cc(C(=O)N3C[C@@H](C)O[C@@H](C)C3)no2)c1 | 13.3
O=C(c1cccc(Cl)c1)N(Cc1cccs1)C1CCS(=O)(=O)C1 (centres unmarked) | -0.295
O=[N+]([O-])c1ccc(S(=O)(=O)NNC(=S)NCCc2ccccc2)cc1 | 2.93
N#CC1CCN(c2ncccc2[N+](=O)[O-])CC1 | 24.1
O=C(O)CCCC(=O)N1CCCC1 | 14
Nc1cccc(-c2ccc(CO)o2)c1 | 8.75
CCCCN(C(=O)CSc1nnc(-c2ccc(OC)cc2)n1C(C)C)c1c(N)n(Cc2ccccc2)c(=O)[nH]c1=O | -2.9
